{"source": "paper PMC4336329", "about": "(PLoS ONE, 2015)", "note": "In all, about 310,000 compounds went through this assay and about 14,000 (4.5%) showed an effect of 50% or more. The effect is printed as a negative number. Some of the results follow.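 Note: peak tail current of the secondary pulse compared with the same well before compound.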", "data": [{"target": "human ether-à-go-go-related gene (hERG) potassium channel (human, UniProt Q12809)", "sequence (Q12809 whole entry, looked up)": "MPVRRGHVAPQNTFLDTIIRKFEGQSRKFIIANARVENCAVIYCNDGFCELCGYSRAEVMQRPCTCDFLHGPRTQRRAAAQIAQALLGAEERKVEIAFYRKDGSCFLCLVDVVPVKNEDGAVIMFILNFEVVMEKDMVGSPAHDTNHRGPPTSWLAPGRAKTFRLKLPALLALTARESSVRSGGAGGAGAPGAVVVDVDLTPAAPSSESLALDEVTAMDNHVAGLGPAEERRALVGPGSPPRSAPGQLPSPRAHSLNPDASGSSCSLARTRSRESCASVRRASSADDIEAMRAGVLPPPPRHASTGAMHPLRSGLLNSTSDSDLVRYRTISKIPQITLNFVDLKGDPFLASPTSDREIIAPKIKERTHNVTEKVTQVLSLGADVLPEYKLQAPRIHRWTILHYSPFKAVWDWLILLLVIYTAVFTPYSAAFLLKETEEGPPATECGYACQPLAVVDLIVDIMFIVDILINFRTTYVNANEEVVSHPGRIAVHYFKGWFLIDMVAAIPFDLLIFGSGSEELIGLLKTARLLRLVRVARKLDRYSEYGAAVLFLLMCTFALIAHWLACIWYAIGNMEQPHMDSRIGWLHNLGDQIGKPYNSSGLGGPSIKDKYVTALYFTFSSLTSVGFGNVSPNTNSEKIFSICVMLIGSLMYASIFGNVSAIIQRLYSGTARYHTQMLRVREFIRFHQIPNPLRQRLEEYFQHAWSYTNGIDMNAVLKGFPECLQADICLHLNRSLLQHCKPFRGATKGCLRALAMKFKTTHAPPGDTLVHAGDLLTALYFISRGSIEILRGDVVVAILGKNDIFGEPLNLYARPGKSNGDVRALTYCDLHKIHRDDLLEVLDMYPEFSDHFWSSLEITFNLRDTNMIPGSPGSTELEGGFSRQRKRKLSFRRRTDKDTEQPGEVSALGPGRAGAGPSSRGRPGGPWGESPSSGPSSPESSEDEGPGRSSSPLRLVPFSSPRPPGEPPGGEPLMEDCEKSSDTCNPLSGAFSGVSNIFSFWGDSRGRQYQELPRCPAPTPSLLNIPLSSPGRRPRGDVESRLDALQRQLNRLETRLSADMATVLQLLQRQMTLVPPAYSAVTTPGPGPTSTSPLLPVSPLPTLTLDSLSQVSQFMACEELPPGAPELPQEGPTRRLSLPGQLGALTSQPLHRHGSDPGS", "assay": "primary screen, population patch clamp on CHO cells stably expressing hERG", "units": {"hERG current change (%, negative = inhibition) at 10uM": "%"}, "values": [{"molecule": "CN(C)CCCNC(=S)N(CCCO)Cc1cc2cc3c(cc2[nH]c1=O)OCO3", "hERG current change (%, negative = inhibition) at 10uM": 17.9}, {"molecule": "CC(C)(C)c1nc(Sc2ncccc2[N+](=O)[O-])n[nH]1", "hERG current change (%, negative = inhibition) at 10uM": 8.77}, {"molecule": "Cc1nc2cc(Cl)ccc2c(=O)n1Cc1ccncc1", "hERG current change (%, negative = inhibition) at 10uM": -3.2}, {"molecule": "CCN=c1scc(-c2ccc3c(c2)NC(=O)CO3)n1N=C1CCCC1", "hERG current change (%, negative = inhibition) at 10uM": -10}, {"molecule": "Cc1ccc(CS(=O)Cc2ccc(C(=O)NCc3ccccc3)o2)cc1", "note": "(stereo not shown)", "hERG current change (%, negative = inhibition) at 10uM": 11}, {"molecule": "O=C(NCC1CCCO1)c1ccc2c(=O)n(-c3ccccc3)c(=S)[nH]c2c1", "note": "(stereo not shown)", "hERG current change (%, negative = inhibition) at 10uM": 7.85}, {"molecule": "COC(=O)CSc1nc(C)c2ccc(OC)cc2n1", "hERG current change (%, negative = inhibition) at 10uM": 2.22}, {"molecule": "O=C(CSc1n[nH]c(=O)[nH]c1=O)N/N=C/c1ccccc1O", "hERG current change (%, negative = inhibition) at 10uM": 11}, {"molecule": "COCCNC(=O)c1cn(C)c2ccc(S(=O)(=O)N3CCCCC3)cc2c1=O", "hERG current change (%, negative = inhibition) at 10uM": 11.1}, {"molecule": "Cc1ccc2c(CC(=O)OCC(=O)Nc3ccc(Cl)cn3)coc2c1", "hERG current change (%, negative = inhibition) at 10uM": 1.62}, {"molecule": "COc1ccc(-c2noc(-c3cccc(OC)c3OC)n2)cc1OC", "hERG current change (%, negative = inhibition) at 10uM": 20.4}, {"molecule": "Cc1nc(N/N=C/c2ccc(Br)cc2)cc(N2CCOCC2)n1", "hERG current change (%, negative = inhibition) at 10uM": -0.525}, {"molecule": "O=S(=O)(c1ccccc1)N1CCN=C1SCc1cccc(Cl)c1", "hERG current change (%, negative = inhibition) at 10uM": -14.9}, {"molecule": "COc1cc(S(=O)(=O)NCCc2ccc3c(c2)OCO3)ccc1-n1cnnn1", "hERG current change (%, negative = inhibition) at 10uM": -16.3}, {"molecule": "CC(=O)Nc1ccc(C(=O)OCC(=O)N2CCCC2)cc1", "hERG current change (%, negative = inhibition) at 10uM": 19.2}, {"molecule": "Cc1c(C(=O)Nc2cc(F)ccc2F)sc2nc3n(c(=O)c12)CCCCC3", "hERG current change (%, negative = inhibition) at 10uM": 22.7}, {"molecule": "COC(=O)c1ccc(CC(=O)c2c(C)cc(O)cc2O)o1", "hERG current change (%, negative = inhibition) at 10uM": 0.801}, {"molecule": "COC(=O)c1ccc(CSc2nc3ccccc3o2)cc1", "hERG current change (%, negative = inhibition) at 10uM": -0.236}, {"molecule": "CCC1Nc2ncnc(N3CCN(c4ccccc4)CC3)c2N(Cc2ccc(C)cc2)C1=O.O=C(O)C(F)(F)F", "note": "(stereo not shown)", "hERG current change (%, negative = inhibition) at 10uM": -4.6}, {"molecule": "O=C(CCS(=O)(=O)c1ccc(Cl)cc1)Nc1nc(-c2cccnc2)cs1", "hERG current change (%, negative = inhibition) at 10uM": 19.5}, {"molecule": "CCN(CC)Cc1cc(NC2=NS(=O)(=O)c3ccccc32)ccc1OC(=O)c1ccccc1.Cl", "hERG current change (%, negative = inhibition) at 10uM": -48.5}, {"molecule": "CC(C)N1CC2=C(OC(N)=C(C#N)C2c2cccnc2)/C(=C/c2cccnc2)C1", "note": "(stereo not shown)", "hERG current change (%, negative = inhibition) at 10uM": -23.6}, {"molecule": "Cc1ccc(S(=O)(=O)N2CCN(CC(=O)NC3CCCc4ccccc43)CC2)c(C)c1", "note": "(stereo not shown)", "hERG current change (%, negative = inhibition) at 10uM": -19.7}, {"molecule": "CCN(CC)C(=O)Cn1cc(/C=C(\\C#N)C(=O)NC2CC2)c2ccccc21", "hERG current change (%, negative = inhibition) at 10uM": 5.57}, {"molecule": "Cc1noc(C)c1C(=O)OCC(=O)NC(c1ccccc1)c1ccccc1", "hERG current change (%, negative = inhibition) at 10uM": 1.47}, {"molecule": "CCN1C(=S)N[C@@H](CCc2ccccc2)C(C(=O)OC)=C1C", "hERG current change (%, negative = inhibition) at 10uM": -8.11}, {"molecule": "COc1ccc(/C=C/C=C2\\N=C(SC)SC2=O)cc1", "hERG current change (%, negative = inhibition) at 10uM": 8.3}, {"molecule": "COCCCNC(=O)CN(C1CCCCC1)S(=O)(=O)c1ccc(C)cc1", "hERG current change (%, negative = inhibition) at 10uM": -0.742}, {"molecule": "N#CC1=C(N)N(c2ccccc2)C(c2ccccc2)C1(C#N)C#N", "note": "(stereo not shown)", "hERG current change (%, negative = inhibition) at 10uM": 0.751}, {"molecule": "CCn1c(SCC(=O)NC(C)(C)C)nnc1-c1ccncc1", "hERG current change (%, negative = inhibition) at 10uM": 16.6}, {"molecule": "CC(=O)c1cccc(CN(C)CC2CCCN(CCc3ccccc3C)C2)c1", "note": "(stereo not shown)", "hERG current change (%, negative = inhibition) at 10uM": -28.8}, {"molecule": "COc1ccc(/C=N/NC(=O)c2[nH]c3ccc(Cl)cc3c2-c2ccccc2)c(C(=O)O)c1OC", "hERG current change (%, negative = inhibition) at 10uM": 5.67}, {"molecule": "O=C1c2ccccc2-c2nnc(-c3ccccc3)cc21", "hERG current change (%, negative = inhibition) at 10uM": 10.6}, {"molecule": "Cc1ccc(S(=O)(=O)n2ccnc2)cc1C", "hERG current change (%, negative = inhibition) at 10uM": 6.47}, {"molecule": "S=C(NCCN1CCOCC1)N/N=C/c1c2ccccc2cc2ccccc12", "hERG current change (%, negative = inhibition) at 10uM": -1.34}, {"molecule": "CC1(C)CC(=O)C(C=NCCO)=C(O)C1", "hERG current change (%, negative = inhibition) at 10uM": 18.7}, {"molecule": "CSc1ccccc1OCc1cc(C(=O)N(C)C(C)c2ccccn2)no1", "note": "(stereo not shown)", "hERG current change (%, negative = inhibition) at 10uM": -10.6}, {"molecule": "CS(=O)(=O)c1cccc(C(=O)Nc2cccc(-c3nc4ccccc4[nH]3)c2)c1", "hERG current change (%, negative = inhibition) at 10uM": -56.7}, {"molecule": "Cc1nn(-c2ccccc2)c(C)c1/C=C/C(=O)OCC(=O)Nc1ccc(S(N)(=O)=O)cc1", "hERG current change (%, negative = inhibition) at 10uM": 13.1}, {"molecule": "COc1cc2c(cc1OC)C(c1cc(Br)ccc1F)N(C(=O)CCl)CC2", "note": "(stereo not shown)", "hERG current change (%, negative = inhibition) at 10uM": -28.6}, {"molecule": "C=CCn1c(SCC(=O)NCCCC)nc2scc(-c3ccco3)c2c1=O", "hERG current change (%, negative = inhibition) at 10uM": -16.7}, {"molecule": "O=C(c1ccc(F)cc1)N1CCOC(c2nc(-c3ccc(F)cc3)no2)C1", "note": "(stereo not shown)", "hERG current change (%, negative = inhibition) at 10uM": -40}, {"molecule": "COc1ccc(N2CC(C(=O)Nc3nnc(SCC(=O)NCc4ccco4)s3)CC2=O)cc1", "note": "(stereo not shown)", "hERG current change (%, negative = inhibition) at 10uM": 19.4}, {"molecule": "CC(=O)Nc1c2c(nn1-c1cccc(C)c1)CSC2", "hERG current change (%, negative = inhibition) at 10uM": 10.9}, {"molecule": "C=CCc1cccc(/C=N/NC(=O)CNc2ccccc2OC)c1O", "hERG current change (%, negative = inhibition) at 10uM": 12.1}, {"molecule": "Cc1ccc(OCCSc2ncnc3sc(C)c(C)c23)cc1C", "hERG current change (%, negative = inhibition) at 10uM": 3.4}, {"molecule": "COc1ccc(C(=O)Nn2cnc3ccccc3c2=O)cc1[N+](=O)[O-]", "hERG current change (%, negative = inhibition) at 10uM": -4.64}, {"molecule": "O=C(COc1nc2ccccc2nc1N1CCOCC1)Nc1cccc(S(=O)(=O)N2CCCCC2)c1", "hERG current change (%, negative = inhibition) at 10uM": -3.3}, {"molecule": "COc1ccc(-n2c(/C=C3\\C(=O)N(C)c4ccccc43)nc3ccccc3c2=O)cc1", "hERG current change (%, negative = inhibition) at 10uM": 13.6}, {"molecule": "CC(=O)Nc1ccc(Oc2nc(-c3cccnc3)nc3sc4c(c23)CCCC4)cc1", "hERG current change (%, negative = inhibition) at 10uM": 5.5}, {"molecule": "N#C/C(=C\\c1c(N2CCN(c3ccccc3)CC2)nc2ccccn2c1=O)S(=O)(=O)c1ccccc1", "hERG current change (%, negative = inhibition) at 10uM": 2.28}, {"molecule": "CCc1ccc(OCC(=O)NCCc2ccc3c(c2)OCCO3)cc1", "hERG current change (%, negative = inhibition) at 10uM": -28}, {"molecule": "CC(=O)c1ccc(N(CC(=O)NC2CCCCC2)C(=O)CNC(=O)c2ccco2)cc1", "hERG current change (%, negative = inhibition) at 10uM": -7.74}, {"molecule": "O=C(COc1ccccc1[N+](=O)[O-])N(Cc1ccccc1)c1ccccn1", "hERG current change (%, negative = inhibition) at 10uM": -15}, {"molecule": "O=C(N/N=C1/CC2C=CCC12)c1ccco1", "note": "(stereo not shown)", "hERG current change (%, negative = inhibition) at 10uM": -7.26}]}]}
